Measured values published in article PMC12820563, “FoxP3 forms a head-to-head dimer in vivo and stabilizes its multimerization on adjacent microsatellites”.
This is one part of the list.

Molecular target: T1, MBP-FoxP1dN (Mus musculus, UniProt P58462 326-579)
T1 sequence: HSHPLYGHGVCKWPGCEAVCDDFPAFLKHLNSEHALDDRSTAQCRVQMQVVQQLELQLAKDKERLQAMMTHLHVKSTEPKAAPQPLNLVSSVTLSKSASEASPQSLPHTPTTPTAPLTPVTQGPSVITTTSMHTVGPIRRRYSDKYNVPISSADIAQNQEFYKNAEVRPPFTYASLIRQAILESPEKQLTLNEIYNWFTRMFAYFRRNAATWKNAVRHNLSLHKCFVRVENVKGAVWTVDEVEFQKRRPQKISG
Assay: PD-seq (MBP pull-down with sequencing); 20 mM Tris-HCl pH 7.5, 100 mM NaCl, 1.5 mM MgCl2, 0.4 uM protein, 0.1 uM dsDNA library, 30 min, room temperature, amylose pull-down; high values mean tight binding
Details: protein: recombinant; tags: His6-MBP; chain copies: 2; dsDNA, one strand shown
Method in brief: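 E. coli-expressed mouse FoxP3 or FoxP1 fragment, N-terminus removed and tagged with His6-MBP, was used at 0.4 µM against 0.1 µM of a Klenow-filled degenerate double-stranded DNA library. After 30 min at room temperature in Tris pH 7.5 buffer with NaCl and MgCl2, complexes were pulled down on amylose resin and washed three times. Binding is pull-down over input reads-per-million enrichment from pooled replicates of the proteinase K-released, PCR-barcoded, Illumina-sequenced DNA.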

Sequence	binding signal
GATGATTGTTCTCCCAGCTGATGAATTTCTAGAATCGAGTAAACAAATTTTCCTAATCTTTCTGTTCAAGCGCCATCTAC	0.968 RPM ratio (pull-down/input)
GATGATTGTTCTCCCAGCTGATGAATTGCTGCAGTCGAGTAAACAAATTTTCCTAATCTTTCTGTTCAAGCGCCATCTAC	0.994 RPM ratio (pull-down/input)
GATGATTGTTCTCCCAGCTGATGAATTTGGGAAGTCGAGTAAACAAATTTTCCTAATCTTTCTGTTCAAGCGCCATCTAC	0.833 RPM ratio (pull-down/input)
GATGATTGTTCTCCCAGCTGATGAATTACGAAAATCGAGTAAACAAATTTTCCTAATCTTTCTGTTCAAGCGCCATCTAC	1.23 RPM ratio (pull-down/input)
GATGATTGTTCTCCCAGCTGATGAATTCTTTTCTTCGAGTAAACAAATTTTCCTAATCTTTCTGTTCAAGCGCCATCTAC	0.985 RPM ratio (pull-down/input)
GATGATTGTTCTCCCAGCTGATGAATTTCGGCATTCGAGTAAACAAATTTTCCTAATCTTTCTGTTCAAGCGCCATCTAC	1.09 RPM ratio (pull-down/input)
GATGATTGTTCTCCCAGCTGATGAATTGGCGATGTCGAGTAAACAAATTTTCCTAATCTTTCTGTTCAAGCGCCATCTAC	0.888 RPM ratio (pull-down/input)
GATGATTGTTCTCCCAGCTGATGAATTTACGTGTTCGAGTAAACAAATTTTCCTAATCTTTCTGTTCAAGCGCCATCTAC	1.31 RPM ratio (pull-down/input)
GATGATTGTTCTCCCAGCTGATGAATTTCAGAAATCGAGTAAACAAATTTTCCTAATCTTTCTGTTCAAGCGCCATCTAC	0.969 RPM ratio (pull-down/input)
GATGATTGTTCTCCCAGCTGATGAATTATGTAAGTCGAGTAAACAAATTTTCCTAATCTTTCTGTTCAAGCGCCATCTAC	1.13 RPM ratio (pull-down/input)
GATGATTGTTCTCCCAGCTGATGAATTCGACCTATCGAGTAAACAAATTTTCCTAATCTTTCTGTTCAAGCGCCATCTAC	0.855 RPM ratio (pull-down/input)
GATGATTGTTCTCCCAGCTGATGAATTTACAATCTCGAGTAAACAAATTTTCCTAATCTTTCTGTTCAAGCGCCATCTAC	1.3 RPM ratio (pull-down/input)
GATGATTGTTCTCCCAGCTGATGAATTACTCGCGTCGAGTAAACAAATTTTCCTAATCTTTCTGTTCAAGCGCCATCTAC	1.08 RPM ratio (pull-down/input)
GATGATTGTTCTCCCAGCTGATGAATTACACAGGTCGAGTAAACAAATTTTCCTAATCTTTCTGTTCAAGCGCCATCTAC	1.17 RPM ratio (pull-down/input)
GATGATTGTTCTCCCAGCTGATGAATTCTTTCTTTCGAGTAAACAAATTTTCCTAATCTTTCTGTTCAAGCGCCATCTAC	0.899 RPM ratio (pull-down/input)
GATGATTGTTCTCCCAGCTGATGAATTCAGGGGGTCGAGTAAACAAATTTTCCTAATCTTTCTGTTCAAGCGCCATCTAC	0.723 RPM ratio (pull-down/input)
GATGATTGTTCTCCCAGCTGATGAATTCTATACTTCGAGTAAACAAATTTTCCTAATCTTTCTGTTCAAGCGCCATCTAC	1.05 RPM ratio (pull-down/input)
GATGATTGTTCTCCCAGCTGATGAATTGAGTAAATCGAGTAAACAAATTTTCCTAATCTTTCTGTTCAAGCGCCATCTAC	1.23 RPM ratio (pull-down/input)
GATGATTGTTCTCCCAGCTGATGAATTCCGCCTTTCGAGTAAACAAATTTTCCTAATCTTTCTGTTCAAGCGCCATCTAC	0.858 RPM ratio (pull-down/input)
GATGATTGTTCTCCCAGCTGATGAATTGCTTGCATCGAGTAAACAAATTTTCCTAATCTTTCTGTTCAAGCGCCATCTAC	1.34 RPM ratio (pull-down/input)
GATGATTGTTCTCCCAGCTGATGAATTTCCTAGGTCGAGTAAACAAATTTTCCTAATCTTTCTGTTCAAGCGCCATCTAC	0.797 RPM ratio (pull-down/input)

Sequence	binding signal
GATGATTGTTCTCCCAGCTGATGAATTCGGATATTCGAGTAAACAAATTTTCCTAATCTTTCTGTTCAAGCGCCATCTAC	0.904 RPM ratio (pull-down/input)
GATGATTGTTCTCCCAGCTGATGAATTCGTTACATCGAGTAAACAAATTTTCCTAATCTTTCTGTTCAAGCGCCATCTAC	1.01 RPM ratio (pull-down/input)
GATGATTGTTCTCCCAGCTGATGAATTGGCTGGGTCGAGTAAACAAATTTTCCTAATCTTTCTGTTCAAGCGCCATCTAC	0.772 RPM ratio (pull-down/input)
GATGATTGTTCTCCCAGCTGATGAATTTACGCATTCGAGTAAACAAATTTTCCTAATCTTTCTGTTCAAGCGCCATCTAC	1.51 RPM ratio (pull-down/input)
GATGATTGTTCTCCCAGCTGATGAATTTATAAACTCGAGTAAACAAATTTTCCTAATCTTTCTGTTCAAGCGCCATCTAC	1.24 RPM ratio (pull-down/input)
GATGATTGTTCTCCCAGCTGATGAATTGGTGACTTCGAGTAAACAAATTTTCCTAATCTTTCTGTTCAAGCGCCATCTAC	0.977 RPM ratio (pull-down/input)
GATGATTGTTCTCCCAGCTGATGAATTAATAGATTCGAGTAAACAAATTTTCCTAATCTTTCTGTTCAAGCGCCATCTAC	0.967 RPM ratio (pull-down/input)
GATGATTGTTCTCCCAGCTGATGAATTACAACCATCGAGTAAACAAATTTTCCTAATCTTTCTGTTCAAGCGCCATCTAC	1.26 RPM ratio (pull-down/input)
GATGATTGTTCTCCCAGCTGATGAATTCAGCCTGTCGAGTAAACAAATTTTCCTAATCTTTCTGTTCAAGCGCCATCTAC	0.745 RPM ratio (pull-down/input)
GATGATTGTTCTCCCAGCTGATGAATTAGTGACCTCGAGTAAACAAATTTTCCTAATCTTTCTGTTCAAGCGCCATCTAC	0.866 RPM ratio (pull-down/input)
GATGATTGTTCTCCCAGCTGATGAATTCGTCCCCTCGAGTAAACAAATTTTCCTAATCTTTCTGTTCAAGCGCCATCTAC	0.772 RPM ratio (pull-down/input)
GATGATTGTTCTCCCAGCTGATGAATTGTACGCCTCGAGTAAACAAATTTTCCTAATCTTTCTGTTCAAGCGCCATCTAC	0.951 RPM ratio (pull-down/input)
GATGATTGTTCTCCCAGCTGATGAATTCTGCGTCTCGAGTAAACAAATTTTCCTAATCTTTCTGTTCAAGCGCCATCTAC	0.839 RPM ratio (pull-down/input)
GATGATTGTTCTCCCAGCTGATGAATTAGGACTATCGAGTAAACAAATTTTCCTAATCTTTCTGTTCAAGCGCCATCTAC	0.886 RPM ratio (pull-down/input)
GATGATTGTTCTCCCAGCTGATGAATTGCCGCTTTCGAGTAAACAAATTTTCCTAATCTTTCTGTTCAAGCGCCATCTAC	1.06 RPM ratio (pull-down/input)
GATGATTGTTCTCCCAGCTGATGAATTTTGTGATTCGAGTAAACAAATTTTCCTAATCTTTCTGTTCAAGCGCCATCTAC	1.27 RPM ratio (pull-down/input)
GATGATTGTTCTCCCAGCTGATGAATTGCATTTTTCGAGTAAACAAATTTTCCTAATCTTTCTGTTCAAGCGCCATCTAC	1.69 RPM ratio (pull-down/input)
GATGATTGTTCTCCCAGCTGATGAATTTAGGAGATCGAGTAAACAAATTTTCCTAATCTTTCTGTTCAAGCGCCATCTAC	0.968 RPM ratio (pull-down/input)
GATGATTGTTCTCCCAGCTGATGAATTGGAAGCGTCGAGTAAACAAATTTTCCTAATCTTTCTGTTCAAGCGCCATCTAC	0.893 RPM ratio (pull-down/input)
GATGATTGTTCTCCCAGCTGATGAATTGGTAGTGTCGAGTAAACAAATTTTCCTAATCTTTCTGTTCAAGCGCCATCTAC	0.916 RPM ratio (pull-down/input)
GATGATTGTTCTCCCAGCTGATGAATTCTTCACTTCGAGTAAACAAATTTTCCTAATCTTTCTGTTCAAGCGCCATCTAC	0.92 RPM ratio (pull-down/input)

Sequence	binding signal
GATGATTGTTCTCCCAGCTGATGAATTAGGGTATTCGAGTAAACAAATTTTCCTAATCTTTCTGTTCAAGCGCCATCTAC	0.894 RPM ratio (pull-down/input)
GATGATTGTTCTCCCAGCTGATGAATTTCAGTAGTCGAGTAAACAAATTTTCCTAATCTTTCTGTTCAAGCGCCATCTAC	0.904 RPM ratio (pull-down/input)
GATGATTGTTCTCCCAGCTGATGAATTTTCGACATCGAGTAAACAAATTTTCCTAATCTTTCTGTTCAAGCGCCATCTAC	1.07 RPM ratio (pull-down/input)
GATGATTGTTCTCCCAGCTGATGAATTAGCTGACTCGAGTAAACAAATTTTCCTAATCTTTCTGTTCAAGCGCCATCTAC	0.798 RPM ratio (pull-down/input)
GATGATTGTTCTCCCAGCTGATGAATTCAGGTGTTCGAGTAAACAAATTTTCCTAATCTTTCTGTTCAAGCGCCATCTAC	0.917 RPM ratio (pull-down/input)
GATGATTGTTCTCCCAGCTGATGAATTGAAAGCCTCGAGTAAACAAATTTTCCTAATCTTTCTGTTCAAGCGCCATCTAC	0.795 RPM ratio (pull-down/input)
GATGATTGTTCTCCCAGCTGATGAATTTAATAAGTCGAGTAAACAAATTTTCCTAATCTTTCTGTTCAAGCGCCATCTAC	1.02 RPM ratio (pull-down/input)
GATGATTGTTCTCCCAGCTGATGAATTTCCCAATTCGAGTAAACAAATTTTCCTAATCTTTCTGTTCAAGCGCCATCTAC	0.983 RPM ratio (pull-down/input)
GATGATTGTTCTCCCAGCTGATGAATTCGGGAAGTCGAGTAAACAAATTTTCCTAATCTTTCTGTTCAAGCGCCATCTAC	0.775 RPM ratio (pull-down/input)
GATGATTGTTCTCCCAGCTGATGAATTCTAGCGGTCGAGTAAACAAATTTTCCTAATCTTTCTGTTCAAGCGCCATCTAC	0.797 RPM ratio (pull-down/input)
GATGATTGTTCTCCCAGCTGATGAATTGCTACAATCGAGTAAACAAATTTTCCTAATCTTTCTGTTCAAGCGCCATCTAC	1.5 RPM ratio (pull-down/input)
GATGATTGTTCTCCCAGCTGATGAATTCAGGCCGTCGAGTAAACAAATTTTCCTAATCTTTCTGTTCAAGCGCCATCTAC	0.83 RPM ratio (pull-down/input)
GATGATTGTTCTCCCAGCTGATGAATTATCTGCTTCGAGTAAACAAATTTTCCTAATCTTTCTGTTCAAGCGCCATCTAC	0.893 RPM ratio (pull-down/input)
GATGATTGTTCTCCCAGCTGATGAATTCCTAGGGTCGAGTAAACAAATTTTCCTAATCTTTCTGTTCAAGCGCCATCTAC	0.727 RPM ratio (pull-down/input)
GATGATTGTTCTCCCAGCTGATGAATTACGTCAGTCGAGTAAACAAATTTTCCTAATCTTTCTGTTCAAGCGCCATCTAC	1.02 RPM ratio (pull-down/input)
GATGATTGTTCTCCCAGCTGATGAATTAGGATGCTCGAGTAAACAAATTTTCCTAATCTTTCTGTTCAAGCGCCATCTAC	1.32 RPM ratio (pull-down/input)
GATGATTGTTCTCCCAGCTGATGAATTATTAACCTCGAGTAAACAAATTTTCCTAATCTTTCTGTTCAAGCGCCATCTAC	1.06 RPM ratio (pull-down/input)
GATGATTGTTCTCCCAGCTGATGAATTGCAAACCTCGAGTAAACAAATTTTCCTAATCTTTCTGTTCAAGCGCCATCTAC	1.22 RPM ratio (pull-down/input)
GATGATTGTTCTCCCAGCTGATGAATTAAACGTATCGAGTAAACAAATTTTCCTAATCTTTCTGTTCAAGCGCCATCTAC	1.09 RPM ratio (pull-down/input)
GATGATTGTTCTCCCAGCTGATGAATTGTCCTATTCGAGTAAACAAATTTTCCTAATCTTTCTGTTCAAGCGCCATCTAC	1.07 RPM ratio (pull-down/input)
GATGATTGTTCTCCCAGCTGATGAATTCCCGACTTCGAGTAAACAAATTTTCCTAATCTTTCTGTTCAAGCGCCATCTAC	0.806 RPM ratio (pull-down/input)
